In PubChem BioAssay AID493014 (National Center for Advancing Translational Sciences (NCATS), 2011):
Hit rate of the full screen: of about 340,000 compounds, about 170 (0.05%) were called active. Another 26% or so got no clear call; they are omitted. Calls follow the shape of the dose curve; as a rule, active = well fitted inhibition curve with a large enough effect in the signal ratio, with a control signal flat (not every such curve was filed as active); inconclusive = small, poorly fitted or top-dose-only effect, or effect the other way, or a change in a side signal; inactive = flat fitted curve, though single readings scatter; the % refers to the signal ratio. Only a part is listed here, and it is no random draw.

Test: qHTS Assay to Find Inhibitors of Chronic Active B-Cell Receptor Signaling;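 as to activity change, negative = inhibition: plate controls were basal doxycycline-induced cells for no effect and cells given 10 µM MG132 for full effect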
Conditions: ABC-DLBCL IkBa-CBG/CBR reporter, luminescence ratio (green luciferase fused to IkBa over red control in TMD8 lymphoma cells), 4 h; series mostly up to 46.1 µM; activity change, negative = inhibition: at the top concentration
Outline: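 Concentration-response series (up to 46 uM) were applied to TMD8 dual-reporter cells for 4 h at 37C with doxycycline. Green/red ratio, after filter-overlap correction, defined %Activity; red signal alone was normalised to basal cells and zero luminescence.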
Potency is read from the fitted curve at half-maximal effect.

SMILES | Potency | activity change, negative = inhibition
CC(C)[N+]1(C)[C@@H]2CC[C@H]1CC(OC(=O)C(CO)c1ccccc1)C2 (stereo partly drawn) | inactive | –
N#CC1(C#N)C(C(=O)C23CC4CC(CC(C4)C2)C3)C12CCOCC2 (stereo not drawn) | – | inactive: 2.39%
CCc1nnc(NS(=O)(=O)c2ccc(N/C=C\C(=O)c3ccc(C)cc3)cc2)s1 | – | inactive: 14.2%
O=C(N[C@@H]1C/C=C\C[C@H](CC(=O)N(CCO)Cc2ccccc2)C(=O)NC[C@@H](c2ccccc2)OC1=O)OCC1c2ccccc2-c2ccccc21 | – | inactive: -0.708%
Cc1ccc(C(=O)c2cc([N+](=O)[O-])ccc2N2CCCCC2)cc1 | active: 23.1 µM | –
OCC[C@H]1C[C@@H](O)[C@H](O)[C@]2(OCc3ccccc32)O1 | – | inactive: 8.03%
C=CC[C@@H](CC(=O)N(CCO)Cc1ccccc1)C(=O)NCCOC(=O)[C@H](CC=C)CC(=O)OC(C)(C)C | – | inactive: 0.122%
COC(=O)C1=C(C)N(Cc2ccccc2)C(=NCCc2cccnc2)N[C@H]1c1ccccc1 | – | inactive: 15.6%
CC(C)NC(=O)/C(C#N)=C/c1ccc(N(C)C)o1 | – | inactive: -21%
CCOC(=O)[C@@H]1[C@H]2COc3ccccc3[C@H]2N2C(=O)N(c3ccc(Cl)cc3)C(=O)[C@@]12C | – | inactive: -2%
C[C@H]1O[C@@H](O[C@H]2[C@@H](O)C[C@H](O[C@H]3[C@@H](O)C[C@H](O[C@H]4CC[C@@]5(C)[C@H](CC[C@@H]6[C@@H]5C[C@@H](O)[C@]5(C)[C@@H](C7=CC(=O)OC7)CC[C@]65O)C4)O[C@@H]3C)O[C@@H]2C)C[C@H](O)[C@@H]1O | – | inactive: -13.8%
C=CCOC(=O)C1=C[C@H](c2coc3ccccc3c2=O)C[C@H](OCc2ccc(CO)cc2)O1 | – | inactive: -1.96%
CC(C)(C)OC(=O)C[C@@H]1C/C=C\C[C@H](CC(=O)N[C@H](CO)Cc2ccccc2)C(=O)N[C@H](C(C)(C)C)COC1=O | – | inactive: 2.22%
CCc1ccccc1NC(=S)N=Nc1c(O)n(C)c2ccc(S(=O)(=O)N3CCOCC3)cc12 | active: 18.4 µM | –
Cc1nc2ccccc2n2c(-c3ccccc3)c3c(=O)n(C)c(=O)n(C)c3c12 | – | inactive: -1.31%
Cc1cccc(Cn2c(=O)n(-c3ccc(CC(=O)NCc4ccco4)cc3)c(=O)c3sccc32)c1 | active: 5.01 µM | –
Cc1ccc(C(=O)N/C(=C/c2ccccc2)C(=O)NCc2ccncc2)cc1 | – | inactive: 4.95%
O=C(C[C@H]1C/C=C\C[C@H](NC(=O)OCC2c3ccccc3-c3ccccc32)C(=O)OC[C@@H]2CCCN2C1=O)N[C@H](CO)Cc1ccccc1 | – | inactive: 0.155%
COC(C[C@@H]1O[C@@H]1[C@H](O)[C@@H](C)OCc1ccccc1)OC | – | inactive: 0.402%
CC(C)(C)OC(=O)C[C@H]1C/C=C\C[C@@H](CC(=O)N[C@@H](CO)Cc2ccccc2)C(=O)N2CCC[C@H]2COC1=O | – | inactive: 1.04%
Cc1ccsc1/C=C1/SC(N2CC(C)OC(C)C2)=NC1=O (stereo not drawn) | – | inactive: -4.55%

SMILES | Potency | activity change, negative = inhibition
COc1ccc(NC(=O)CN2C(=O)c3ccccc3Sc3ccc(C(=O)N4CCOCC4)cc32)c(OC)c1 | – | inactive: -1.74%
Cc1ccc2c(c1C)NC(C(=O)O)C1CC=CC21 (stereo not drawn) | – | inactive: 19.8%
C=CC[C@H](CC(=O)N(CCO)Cc1ccccc1)C(=O)NC[C@H](OC(=O)[C@@H](CC=C)CC(=O)OC(C)(C)C)c1ccccc1 | – | inactive: -0.575%
NC(=O)C1CCN(c2nc(-c3cccnc3)cs2)CC1 | – | inactive: -2.04%
C=CCC[C@H](Cc1ccc(F)cc1)C(=O)OC[C@H](Cc1c[nH]c2ccccc12)NC(=O)[C@@H](CC=C)CC(=O)NCCO | – | inactive: -6.36%
CC1=C(CC(=O)O)c2cc(F)ccc2/C1=C/c1ccc(S(C)=O)cc1 (stereo not drawn) | – | inactive: -4.54%
COC(=O)C1=C(C)N(CC2CC2)C(=NCc2cccc(Cl)c2)N[C@H]1c1ccccc1 | – | inactive: -1.44%
O=C(O)C(Cc1c[nH]c2ccccc12)N1C(=O)C2C3c4ccccc4C(c4ccccc43)[C@@H]2C1=O (stereo partly drawn) | – | inactive: -1.25%
NC(=S)n1[nH]c(-c2ccc([N+](=O)[O-])cc2)c(N=Nc2ccc(Cl)cc2)c1=O | active: 10 µM | –
C=CCC[C@H](Cc1ccc(F)cc1)C(=O)OC[C@H](Cc1c[nH]c2ccccc12)NC(=O)[C@H](CC=C)CC(=O)NCCO | – | inactive: -2.42%
C[C@H](CO)N1C[C@H](C)[C@@H](CN(C)C(=O)Nc2ccccc2)Oc2ccc(NC(=O)CCN3CCOCC3)cc2C1=O | – | inactive: -0.51%
O=C1OC[C@@H]2CCCN2C(=O)[C@H](CC(=O)N(CCO)Cc2ccccc2)C/C=C\CC[C@H]1Cc1ccc(F)cc1 | – | inactive: 1.91%
CCOC(=O)c1c(S(=O)(=O)N2CCCC(C(=O)Nc3ncccc3C)C2)c(C)n(C)c1C (stereo not drawn) | – | inactive: 11.9%
CCOC(=O)C1=C(C)N=C2SCCC(=O)N2[C@@H]1c1cccs1 | – | inactive: 9.36%
CCC1CCCCN1CCCNC(=O)CN1C(=O)CSc2ccc(S(=O)(=O)N3CCC(C)CC3)cc21 (stereo not drawn) | – | inactive: -2.84%
O=C1N[C@@H](Cc2c[nH]c3ccccc23)COC(=O)[C@H](Cc2ccc(F)cc2)C/C=C\C[C@@H]1CC(=O)N(CCO)Cc1ccccc1 | – | inactive: -3.2%
OCC[C@H]1C[C@H](O)[C@@H](O)[C@@]2(CCc3ccccc3CO2)O1 | – | inactive: -1.87%
c1cnc(N2CCN(Cc3ccc4c(c3)OCO4)CC2)nc1 | inactive | –
CN1CCN(C(=O)C2=C[C@H](c3ccc4c(c3)OCO4)C[C@H](OCc3ccc(CO)cc3)O2)CC1 | – | inactive: 1.52%
COCCCNC(=O)c1ccc2c(c1)nc(C)n2-c1cccc(C)c1 | – | inactive: -14.6%
CN(C)c1ccnc2c[cH-]cc12.[Fe].c1ccc(-[c-]2[c-](-c3ccccc3)[c-](-c3ccccc3)[c-](-c3ccccc3)[c-]2-c2ccccc2)cc1 (stereo not drawn) | – | inactive: -2.37%

SMILES | Potency | activity change, negative = inhibition
O=C(NCCO)/C(=C\c1cccc([N+](=O)[O-])c1)NC(=O)c1ccco1 | – | inactive: -0.321%
Oc1cc(-c2ccncc2)cc2cccnc12 | – | inactive: -13.2%
COc1ccc2c(c1)c(/C=N/Nc1nc3ccccc3[nH]1)c(C)n2C | active: 15.8 µM | –
CCO[C@H]1OC(C(N)=O)=C[C@@H](C2CCCCC2)[C@@H]1CCCO | – | inactive: -12.1%
CC(=O)C[C@@H](O)CC(=O)[C@@H]1OC(=O)CCCCCCCCc2ccccc21 | – | inactive: -0.321%
O=C(NCCCn1ccnc1)/C(=C\c1cccs1)NC(=O)c1ccco1 | – | inactive: 2.08%
C=CC[C@H](CC(=O)N(CCO)Cc1ccccc1)C(=O)N[C@@H](C)COC(=O)[C@@H](CC=C)Cc1ccc(F)cc1 | – | inactive: -1.12%
Cc1ccc(C(=O)NN2C(=O)C3C4C=CC([C@@H]3C2=O)C42CC2)cc1 (stereo partly drawn) | – | inactive: -1.81%
OCC1OC(n2cnc3c(NC4CCCCC4)ncnc32)C(O)C1O (stereo not drawn) | active: 12.6 µM | –
CC(=O)OCC(=O)C1(O)CCC2C3CCC4=CC(=O)C=CC4(C)C3C(O)CC21C (stereo not drawn) | – | inactive: -25.6%
Cc1ccccc1CN1C(=O)c2ccccc2Sc2ccc(C(=O)O)cc21 | – | inactive: -1.11%
C=CC[C@H](CC(=O)OC(C)(C)C)C(=O)OC[C@H]1CCCN1C(=O)[C@H](CC=C)CC(=O)NCCO | – | inactive: 1.21%
CC1=C/C(=C(\c2ccc(O)c(C)c2)c2ccccc2S(=O)(=O)O)C=CC1=O | – | inactive: 0.161%
CC/C(=N\NC(=S)NC(C)C)c1ccc(OC(F)F)cc1 | active: 22.4 µM | –
CCO[C@@H]1OC(C(=O)NCc2nc3ccccc3[nH]2)=C[C@H](c2ccc(C(F)(F)F)cc2)[C@H]1CCCO | – | inactive: -16.8%
Cc1cc(NC(=O)CCN2C(=O)/C(=C/c3ccccc3Cl)SC2=S)no1 | – | inactive: 3.92%
O=C(C1=C[C@H](c2csc3ccccc23)C[C@H](OCc2ccc(CO)cc2)O1)N1CCN(Cc2ccc3c(c2)OCO3)CC1 | – | inactive: -14.3%
Cn1c(=O)c2c(ncn2CC(=O)N/N=C/C=C\c2ccccc2[N+](=O)[O-])n(C)c1=O | – | inactive: -6.74%
O=C1/C(=C\c2ccsc2)N2CCC1CC2 | – | inactive: 0.387%
CCOC(=O)c1c(CN2CCOCC2)n(C)c2cc(Br)c(O)c(CN(C)C)c12 | – | inactive: -1.88%
O=C(O)Cn1c(O)c(C=Nc2ccccc2)sc1=S | – | inactive: -0.967%

SMILES | Potency | activity change, negative = inhibition
O=C1OC[C@@H]2CCCN2C(=O)[C@H](CC(=O)N(CCO)Cc2ccccc2)C/C=C\CC[C@@H]1Cc1ccc(F)cc1 | – | inactive: 0.374%
COc1ccccc1N1C(=O)N(CC(=O)C(C)(C)C)c2ccccc2S1(=O)=O | – | inactive: -2.58%
O=C(Nc1ccccc1Cl)N1CCSc2ccccc21 | – | inactive: -0.834%
O=C1OC[C@@H]2CCCN2C(=O)[C@@H](CC(=O)N(CCO)Cc2ccccc2)C/C=C\C[C@H]1Cc1ccc(F)cc1 | – | inactive: -0.149%
O=C(O)CSc1cccc2cccnc12 | – | inactive: 4.1%
COc1ccc(C(=O)N/C(=C/c2cccc3ccccc23)C(=O)NCCc2c[nH]c3ccccc23)cc1OC | – | inactive: -8.35%
COC(=O)/C=C1/N/C(=N\c2nc(C)cc(C)n2)N(c2ccc(Cl)cc2)C1=O | – | inactive: -0.334%
CC1CC2C3CCC4=CC(=O)C=CC4(C)C3(F)C(O)CC2(C)C1(O)C(=O)CO (stereo not drawn) | – | inactive: -7.99%
COc1cccc(-c2ccc3ncnc(NCc4cc(C)cs4)c3c2)c1 | – | inactive: -10.1%
COc1ccc(NS(=O)(=O)c2ccc3ccccc3c2)c2ncccc12 | active: 3.16 µM | –
C=CCc1ccc(OCCOc2ccc(/C=N/n3cnnc3)cc2OCC)c(OC)c1 | active: 23.1 µM | –
O=C(NCc1ccc2c(c1)OCO2)c1cc([N+](=O)[O-])ccc1N1CCCCC1 | active: 23.1 µM | –
O=C1N[C@@H](Cc2ccccc2)COC(=O)[C@H](Cc2ccc(F)cc2)CC/C=C/C[C@@H]1CC(=O)N(CCO)Cc1ccccc1 | – | inactive: 0.18%
CCN1/C(=C2/OC(=S)N(C)C2=O)Sc2ccccc21 | – | inactive: -1.27%
O=C1NCCOC(=O)[C@H](Cc2ccc(F)cc2)C/C=C\C[C@H]1CC(=O)N(CCO)Cc1ccccc1 | – | inactive: -0.325%
Nc1nc(Cl)nc2c1ncn2[C@H]1C[C@H](O)[C@@H](CO)O1 | – | inactive: 2.03%
CC(=O)Nc1ccc(S(=O)(=O)NC(C)C(=O)OCC(=O)NC2CCCC2)cc1 (stereo not drawn) | – | inactive: 4.85%
COc1ccc(C(F)(F)F)cc1N/C=C\c1nnnn1-c1ccc(C)cc1 | – | inactive: 8.57%
COc1ccccc1/C=C\C=N\NC(=O)CCn1nnc2ccccc21 | – | inactive: -0.0277%
Cc1ccc(C(=O)N/C(=C/c2cccs2)C(=O)N2CCCCCC2)cc1 | – | inactive: -0.262%
